The other results are listed elsewhere or left out. These are noisy estimates, calculated here from bound and input reads.
molecular target: T1, Pho4 (S. cerevisiae) (UniProt P07270); assay: relative binding free energy (BET-seq); higher = weaker binding; conditions: reference: library average
T1 sequence: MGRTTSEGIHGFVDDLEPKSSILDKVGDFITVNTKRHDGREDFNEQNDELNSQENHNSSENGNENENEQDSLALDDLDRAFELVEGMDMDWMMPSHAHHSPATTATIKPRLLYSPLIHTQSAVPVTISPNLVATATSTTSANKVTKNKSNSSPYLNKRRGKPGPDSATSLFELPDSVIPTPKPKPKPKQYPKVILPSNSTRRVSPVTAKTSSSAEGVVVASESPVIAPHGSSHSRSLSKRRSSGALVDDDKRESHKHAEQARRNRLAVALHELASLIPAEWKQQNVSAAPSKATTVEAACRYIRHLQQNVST

Sequence | relative binding free energy [kcal/mol]
CTCGACACGTGTGGGG | -0.04
TAATGCACGTGAGATG | 0.09
AATGACACGTGGTTGA | 0.04
ACTGGCACGTGGATGA | 0.08
AATGTCACGTGGGATA | -0.04
GGTAGCACGTGGCCGT | -0.3
GCGGTCACGTGGGGCA | -0.12
TTGCGCACGTGGGGGC | -0.29
ATGGGCACGTGTCGCT | -0.07
TTTAACACGTGGACAT | 0.12
ACGTTCACGTGATGTT | 0.3
ATGATCACGTGAGGGA | 0.25
CTGTACACGTGAGGAG | 0.29
AGGTCCACGTGTCGTT | 0.14
TAGCGCACGTGGCGGG | -0.43
TTTTTCACGTGGCCGG | 0.21
TTATTCACGTGCGGCA | 0.26
ATGTTCACGTGTATTC | 0.07
GTCTGCACGTGTATAG | -0.02
GTTTACACGTGAATGA | 0.35
ATGATCACGTGGTAGG | 0.14
GGTGACACGTGACTGT | 0.17
AGGTCCACGTGTTGTC | 0.09
ATGGCCACGTGTTATG | -0.1
TGTTGCACGTGCTGGC | 0.07
TGCTGCACGTGTGGTC | -0.03

Sequence | relative binding free energy [kcal/mol]
GATTGCACGTGTTAGT | 0.12
CATTACACGTGGTTGT | 0.12
CCGTGCACGTGATGTT | 0.21
AAAGTCACGTGTTGAG | 0.05
GCGTTCACGTGAGTGG | 0.39
TTAAACACGTGTGTAG | -0.02
CATGACACGTGTGAGG | 0.15
TGGTCCACGTGTGAGG | -0.05
AGTTGCACGTGTTGAC | 0.01
TTTGCCACGTGATGGG | 0.03
TAGGGCACGTGCTAGT | -0.29
GGAATCACGTGTGGAT | 0.06
TAAGTCACGTGCTGTT | 0.06
TTGAGCACGTGGGGAC | -0.32
CGTGTCACGTGAAGAT | 0.17
ACGGACACGTGTTTGG | -0.05
TGCTACACGTGTTTGT | -0.04
GTGGACACGTGAAGTG | 0.28
TAGTGCACGTGTAACT | 0.08
GTTTGCACGTGTTATT | 0.13
GCGGTCACGTGGTTCG | 0.19
GAGGGCACGTGACTTG | 0.09
ATCAGCACGTGTGTGG | 0.07
CATGTCACGTGAGTGT | 0.27
TCTGGCACGTGGTTGC | 0
CTTTTCACGTGTGTCA | 0.24

Sequence | relative binding free energy [kcal/mol]
GATAGCACGTGGTTGT | -0.09
TGATTCACGTGTATGC | 0.33
AGTCGCACGTGAAAGT | 0.27
ATGTTCACGTGTAGGC | 0.37
AGGTTCACGTGTCGGA | 0.17
GTGGTCACGTGATAAA | 0.18
GATGACACGTGGTTGA | 0.1
TTGCGCACGTGTTATG | -0.13
AGATCCACGTGTTGTT | -0.01
GCTGGCACGTGGGGAT | -0.09
GGTTTCACGTGGATTA | 0.36
TTACGCACGTGTATTG | -0.09
ATGCGCACGTGGTATA | -0.2
TTTGCCACGTGACGTG | 0.04
AGAGTCACGTGTGGGG | 0.08
AGGAGCACGTGCGAGT | -0.07
CGAGTCACGTGTTAGG | 0.09
CGGTGCACGTGCATGT | -0.09
GTGAACACGTGGTGTG | -0.23
AGGGTCACGTGGGATT | 0.13
TTGGGCACGTGCGGCG | -0.21
GTTTCCACGTGCGTTT | 0.12
TTTCGCACGTGTGTAG | 0.07
AAAGACACGTGAGGGA | 0.36
GTAAGCACGTGGGTAA | -0.25
TTTCTCACGTGTGAGT | 0.21

Sequence | relative binding free energy [kcal/mol]
TTTAACACGTGGTCTT | -0.16
AAAATCACGTGTTTGA | 0.11
TGACGCACGTGCGTGG | -0.25
GAGTACACGTGAGGGC | 0.41
TGCTGCACGTGGCGGA | -0.06
TTAAGCACGTGGGAAA | -0.04
GAATTCACGTGGGGCA | 0.28
TATAACACGTGCTGTT | -0.11
CGGGTCACGTGGCGGA | -0.06
TTTATCACGTGATAAG | 0.1
AGGTTCACGTGTTAAC | 0.32
CAGCTCACGTGGAGGG | 0.07
TTGGACACGTGCTTTA | 0.11
CGAATCACGTGGGGCG | 0.23
ATGTTCACGTGCATGT | 0.27
CGGTACACGTGCTGGG | 0.01
GGGGGCACGTGGGTGA | -0.17
ATACGCACGTGGGGCT | -0.13
GAGGTCACGTGGTTTA | 0.03
AGTTACACGTGGTATA | 0.13
TTGGGCACGTGTTCTA | 0.01
AGGAACACGTGGTGGG | 0.02
CGGGGCACGTGTTATT | -0.09
TGTGACACGTGGTAAA | -0.03
AGTGACACGTGTGTGT | -0.05
CGGGACACGTGCAGGG | -0.07

Sequence | relative binding free energy [kcal/mol]
GCAAGCACGTGGGTGG | -0.21
TATGACACGTGAGTAG | 0.24
AGAGGCACGTGGCAGA | -0.11
CGGCGCACGTGATGTG | 0.02
CGTTACACGTGGTTTG | -0.02
TACGGCACGTGCGGGA | -0.12
GGTTCCACGTGTAAGG | 0.11
GATGGCACGTGATAAT | 0.16
TGTTCCACGTGTGTCG | 0.04
GGTAACACGTGTCGTT | -0.02
AGGTGCACGTGTAGAC | 0.04
TGATGCACGTGTGTTC | 0.11
GAGTACACGTGTTCGG | 0.27
AGAGTCACGTGCGTTA | 0.1
TTAAACACGTGGTATT | -0.02
ATCTTCACGTGGGTAT | 0.14
AGATGCACGTGAGGAA | 0.12
TATTGCACGTGGTGGC | -0.08
TTTGACACGTGGAATT | 0.1
GTATTCACGTGTGGTA | 0.28
CAGGGCACGTGCGGGT | -0.09
GTTGGCACGTGGGTCT | -0.26
TGTAGCACGTGTTGGG | 0.05
TATCACACGTGATTGG | 0.29
GTGGGCACGTGTTTCT | -0.09
TTTGGCACGTGGCGGA | -0.18

Sequence | relative binding free energy [kcal/mol]
TAGTGCACGTGGTCTG | -0.16
GTGTGCACGTGCGCGG | -0.24
AAGGACACGTGGTGGT | -0.04
GTATGCACGTGTTGCT | 0.03
AGCATCACGTGAAGGT | 0.36
TCTGACACGTGGTTTT | -0.03
AATGGCACGTGTTTAA | -0.2
ACTGTCACGTGGGTGG | -0.03
GTATTCACGTGATTGC | 0.17
GCGTGCACGTGACGTG | 0.17
TGTAACACGTGATGTA | 0.11
GGTATCACGTGTTAGG | 0.14
ATCATCACGTGTTTTT | 0.04
GTGTGCACGTGAGGAT | 0.34
CAGTACACGTGGGGTT | -0.02
TGTTTCACGTGTTAGT | 0.18
CAGTTCACGTGTTGAG | 0.28
CAGAACACGTGGGGTG | -0.2
TACTGCACGTGAGTGT | 0.09
GCGGCCACGTGGTCGG | -0.03
GTTGACACGTGTGGTC | -0.01
AGGGACACGTGGTGTT | -0.08
TCCGGCACGTGGTTTG | -0.06
CAAGTCACGTGGGGAT | -0.1
CCTTTCACGTGTTTTG | 0.16
GAAGACACGTGTGATG | 0.25

Sequence | relative binding free energy [kcal/mol]
AGCGGCACGTGGACGG | -0.05
TAGTGCACGTGTTCTT | -0.04
TCGGTCACGTGTCGGT | 0.24
GGAATCACGTGAAGGT | 0.42
GGGCGCACGTGTCGTA | -0.1
ACGAACACGTGAGGGT | 0.25
ATCATCACGTGGGGGA | 0
CTAGCCACGTGTTGGT | -0.09
TTTTTCACGTGAAGTC | 0.31
AGAGTCACGTGTTATC | 0.24
CTGTGCACGTGAGAGA | 0.42
TAGTGCACGTGGTTCA | -0.13
GTGTACACGTGGGTCC | -0.03
GCAGACACGTGGGGTT | -0.1
AGGTACACGTGAGAAG | 0.25
TTGTGCACGTGTGATT | 0.03
TATCTCACGTGTGTTT | 0.27
ATAAGCACGTGTGTTA | -0.06
TAGGTCACGTGCGCAT | 0
TGGCTCACGTGTGCTT | 0.13
ATTGGCACGTGTGCAA | -0.13
GGATTCACGTGATGTA | 0.35
AGAATCACGTGTGGGA | 0.35
GCGGGCACGTGTATGG | -0.07
GTCTTCACGTGGCTTG | 0.32
GTAATCACGTGAATTT | 0.4

Sequence | relative binding free energy [kcal/mol]
GATAGCACGTGCGGGG | -0.07
TATGTCACGTGTCTAT | -0.08
AGTAGCACGTGGGCTA | -0.3
TTAGTCACGTGGCGCT | 0.02
ATGTTCACGTGTTATT | 0.21
GAGAGCACGTGAGGTG | 0.2
GGATTCACGTGACGTG | 0.35
GCGGCCACGTGGTTGG | -0.06
AGCGGCACGTGTGGCA | 0.08
GTGGCCACGTGATGTG | 0.11
TCTGTCACGTGTCAGT | 0.1
AGAATCACGTGTAGGA | 0.21
TCTTGCACGTGTTAAG | 0.05
TGCGTCACGTGCAAGT | 0.08
TGTGTCACGTGCTGTA | 0.02
CTGAGCACGTGATGTG | -0.12
ATACTCACGTGTGAGG | 0.2
AATGTCACGTGTATAT | 0.13
ATGAGCACGTGGTACT | -0.14
TCTTGCACGTGTTATT | 0.08
TGGGTCACGTGTTCCG | 0.17
AATATCACGTGAAGGG | 0.28
TCTGACACGTGGGGAT | -0.01
CTTGACACGTGTTAAT | 0.09
GGGTGCACGTGCTCTT | 0.09
ATATACACGTGGTGGA | -0.1

Sequence | relative binding free energy [kcal/mol]
TCGGGCACGTGATTTA | 0.07
TGGAGCACGTGATAGG | -0.07
CTGTACACGTGCGTGG | -0.05
ATGGGCACGTGTGTCG | -0.09
GTGATCACGTGGAAAG | 0.27
AGGTCCACGTGTAAGT | 0.06
GAGACCACGTGGGGTA | 0.04
CAGGGCACGTGTATAG | -0.08
AGTCGCACGTGTACGT | 0
GTTAGCACGTGGGCAT | -0.16
AGTATCACGTGGGCAT | 0.1
TGTGTCACGTGGCCGA | -0.05
ATTTTCACGTGGACTG | 0.12
CGGCGCACGTGGGGTC | -0.23
CATGTCACGTGGGTAG | -0.1
TGCAGCACGTGTGTGT | -0.02
GGGCTCACGTGTTTAG | 0.24
GTATTCACGTGTCAGT | 0.38
GAGGGCACGTGGGTGA | -0.15
GTATGCACGTGGGTCT | -0.18
GCATGCACGTGGTGGG | -0.13
TTGTGCACGTGAGGGC | 0.1

Reference: the BET-seq Pho4 binding data (Le et al. 2018)
